We go through 42 molecules from article PMC4336329 (PLoS ONE, 2015).

About 14,000 (4.5%) of roughly 310,000 compounds showed an effect of 50% or more. The effect is printed as a negative number. The list shows a part of the results.
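Also: peak tail current of the secondary pulse compared with the same well before compound.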

Chain of human ether-à-go-go-related gene (hERG) potassium channel (Q12809 whole entry, looked up): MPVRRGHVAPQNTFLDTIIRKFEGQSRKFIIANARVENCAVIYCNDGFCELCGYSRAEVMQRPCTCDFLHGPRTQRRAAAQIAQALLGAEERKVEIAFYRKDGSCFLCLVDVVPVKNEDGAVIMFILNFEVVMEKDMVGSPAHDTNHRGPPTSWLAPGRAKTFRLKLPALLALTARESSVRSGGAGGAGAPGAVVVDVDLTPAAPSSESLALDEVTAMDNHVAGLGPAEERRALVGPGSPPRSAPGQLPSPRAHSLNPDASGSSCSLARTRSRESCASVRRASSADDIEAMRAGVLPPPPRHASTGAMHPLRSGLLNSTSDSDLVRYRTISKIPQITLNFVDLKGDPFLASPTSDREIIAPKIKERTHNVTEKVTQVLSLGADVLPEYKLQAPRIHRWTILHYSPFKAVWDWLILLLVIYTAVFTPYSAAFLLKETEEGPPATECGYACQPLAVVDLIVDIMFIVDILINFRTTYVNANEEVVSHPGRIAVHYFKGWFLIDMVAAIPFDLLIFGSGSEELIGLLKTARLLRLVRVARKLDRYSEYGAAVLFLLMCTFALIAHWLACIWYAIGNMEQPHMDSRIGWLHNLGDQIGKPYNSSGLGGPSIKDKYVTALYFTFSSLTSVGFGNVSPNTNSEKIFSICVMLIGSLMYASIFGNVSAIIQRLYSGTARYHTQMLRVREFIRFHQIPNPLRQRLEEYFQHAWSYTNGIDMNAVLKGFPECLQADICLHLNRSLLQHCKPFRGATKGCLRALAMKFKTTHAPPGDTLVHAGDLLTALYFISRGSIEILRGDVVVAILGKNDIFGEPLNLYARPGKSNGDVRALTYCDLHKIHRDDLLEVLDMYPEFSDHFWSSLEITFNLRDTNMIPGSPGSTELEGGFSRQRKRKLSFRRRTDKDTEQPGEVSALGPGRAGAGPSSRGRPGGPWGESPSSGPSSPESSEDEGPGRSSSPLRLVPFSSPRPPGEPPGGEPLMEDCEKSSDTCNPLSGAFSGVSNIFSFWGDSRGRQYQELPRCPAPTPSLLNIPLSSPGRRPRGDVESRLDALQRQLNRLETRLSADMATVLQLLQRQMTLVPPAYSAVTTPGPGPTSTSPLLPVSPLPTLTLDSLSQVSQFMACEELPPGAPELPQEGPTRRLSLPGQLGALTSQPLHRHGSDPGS

The experiment addresses human ether-à-go-go-related gene (hERG) potassium channel (human, UniProt Q12809). Kind of experiment: primary screen, population patch clamp on CHO cells stably expressing hERG.
Consider `CCOC(=O)c1c(NC(=O)COc2ccccc2)sc2c1CC(C)(C)NC2(C)C`, for which the “hERG current change (%, negative = inhibition) at 10uM” value stood at 14.3%. For `Cc1cccc(NC(=O)COC(=O)c2cc(C)n(C3CC3)c2C)c1`, the “hERG current change (%, negative = inhibition) at 10uM” value is recorded as -0.632%. In the case of `COCCNC(=O)C(c1ccc(F)cc1)N(Cc1cccs1)C(=O)CCC(=O)Nc1ccccn1` (stereo not drawn) it was 15.2%; in that of `COc1ccc(C(=O)NC(=S)Nc2cc(C)ccn2)cc1[N+](=O)[O-]`, 24.3%. For `CCc1ccc(NC(=O)C(CC)Sc2nc3cc4c(cc3c(=O)n2Cc2ccco2)OCO4)cc1` (stereo not drawn), the “hERG current change (%, negative = inhibition) at 10uM” value is listed as -9.39%.

Regarding `COc1ccccc1N1CCN(C(=O)c2cc(-c3ccc(Br)cc3)on2)CC1`, the “hERG current change (%, negative = inhibition) at 10uM” value was 22.2%.

In the case of `COc1ccc(Cn2nnnc2C(c2cccs2)N2CCN(c3ccccc3)CC2)cc1` (stereo not drawn), the “hERG current change (%, negative = inhibition) at 10uM” value is 5.47%. Next, `Cc1ccc(S(=O)(=O)/C(C#N)=C/c2c(N3CCOCC3)nc3c(C)cccn3c2=O)cc1`: -56%; `CCCOc1ccc(/C=C/c2c([N+](=O)[O-])c(=O)n(C)c(=O)n2C)cc1`: 14.5%; `NNC(=S)Nc1ccc(Cl)cc1`: 14.9%. Next, `CC(C)(C)NC(=S)NC(=O)C12CCC3CC(CC(C3)C1)C2`: 6.45%.

As to `Cn1c(SC(C(=O)Nc2ccc(F)cc2)c2ccccc2)nc2ccccc21` (stereo not drawn), the “hERG current change (%, negative = inhibition) at 10uM” value is reported as 6.21%.

Turning to `CCN=C1S/C(=C\c2cn(CC(=O)NCc3ccco3)c3ccccc23)C(=O)N1CC`, the “hERG current change (%, negative = inhibition) at 10uM” value was 19.9%.

With `Cc1ccc(-c2csc3ncnc(SCC(=O)O)c23)cc1`, the “hERG current change (%, negative = inhibition) at 10uM” value was found to be 4.89%. Consider `O=C(Cc1ccsc1)Nc1ccc(Cl)cc1Cl`, for which the “hERG current change (%, negative = inhibition) at 10uM” value stood at 18.4%. Next, `COCCN(C(=O)CCC(=O)Nc1cc(C)on1)C(C(=O)NC(C)(C)C)c1cccc(OC)c1OC` (stereo not drawn): 12.1%; `COC(=O)c1ccc(C(=O)OC)c(NC(=O)CS(=O)(=O)Cc2ccccc2)c1`: -53.2%; `Cc1ccc2occ(/C=N/NC(=O)c3ccccc3C)c(=O)c2c1`: 16.3%. For the molecule `N#Cc1c2c(c(NCCCN3CCOCC3)n3c1nc1ccccc13)CCC2`, the “hERG current change (%, negative = inhibition) at 10uM” value is on record as -48.5%.

As for `CCc1ccc(-c2cc(C)no2)cc1S(=O)(=O)Nc1cc(C)on1`, the “hERG current change (%, negative = inhibition) at 10uM” value amounted to 10.3%. For `COc1cccc(-c2c(C(=O)N/N=C/c3ccoc3)nnn2-c2nonc2N)c1`, the “hERG current change (%, negative = inhibition) at 10uM” value was -9.92%. On to `COc1ccc(C(=O)N(Cc2ccccc2)c2cccc(C)c2)c(OC)c1OC`, for which the “hERG current change (%, negative = inhibition) at 10uM” value was -14.5%. In the case of `CCOC(=O)c1c(C)c(C(=O)NCc2ccccn2)c(C)n1CC` it was 12.1%; in that of `CCOC1(OCC)N=C(N)C2(C#N)C(c3ccc(NC(C)=O)cc3)C12C#N` (stereo not drawn), 13.8%; in that of `CCOC(=O)N1CCN(c2nc(C(F)(F)F)nc3c(C)cc(C)cc23)CC1`, -1.36%. In the case of `COc1cc(NS(=O)(=O)c2ccc(NC(=O)COc3cccc(C)c3)cc2)nc(OC)n1` it was 10.3%. With `Cc1ccccc1OCc1nc2ccccc2n1C`, the “hERG current change (%, negative = inhibition) at 10uM” value is -6.4%.

As to `CCN(CC)C(=O)Cn1cc(C(=O)C(=O)Nc2ccc3c(c2)OCCO3)c2ccccc21`, the “hERG current change (%, negative = inhibition) at 10uM” value came out at 10.4%. Take `COCCNC(=O)C(c1ccc(C)o1)N(C(=O)c1snc(C(N)=O)c1N)c1cc(C)cc(C)c1` (stereo not drawn): the “hERG current change (%, negative = inhibition) at 10uM” value is -28.5%.

In the case of `Cc1cc2c(cc1S(=O)(=O)CCC(=O)NC1CCCCC1C)OCC(=O)N2` (stereo not drawn), the “hERG current change (%, negative = inhibition) at 10uM” value is on record as -53%.

With `Cc1ccc(N(CC(=O)NCc2ccncc2)S(C)(=O)=O)cc1Cl`, the “hERG current change (%, negative = inhibition) at 10uM” value was 9.96%. On to `O=C(CSc1nnc(-c2ccccc2O)o1)N1CCc2ccccc2C1`, for which the “hERG current change (%, negative = inhibition) at 10uM” value is on record as 12.5%. In the case of `CCOc1cc(C(=O)Nc2cc(C)ccc2C)ccc1OCC(=O)N1CCCCC1` it was 17.1%. Next, `COc1ccc(/C=c2/sc3n(c2=O)NC2(c4ccccc4)N(C)C(=O)N(C)C2(c2ccccc2)N=3)cc1` (stereo not drawn): 8.54%. For `Cn1ccc(-c2ccccc2)n1`, the “hERG current change (%, negative = inhibition) at 10uM” value was 12.9%. For `COCCn1c(SCC(=O)Nc2cc(C)on2)nnc1-c1c[nH]c2ccccc12`, the “hERG current change (%, negative = inhibition) at 10uM” value was -30.7%. In the case of `CN(C)C(=O)N1CCN(c2nc(-c3ccccc3)cs2)CC1`, the “hERG current change (%, negative = inhibition) at 10uM” value turned out to be 3.19%. In the case of `CC1(C)Cc2cccc(OCC(=O)Nc3cccnc3)c2O1`, the “hERG current change (%, negative = inhibition) at 10uM” value was -0.463%. As to `O=C(c1ccc(Cn2c(=S)[nH]c3cc4c(cc3c2=O)OCO4)cc1)N1CCN(c2ccccc2)CC1`, the “hERG current change (%, negative = inhibition) at 10uM” value is recorded as 14.1%.

For `COc1ccc(C(=O)NC(=S)Nc2ccc(Cl)c(C(=O)O)c2)cc1`, the “hERG current change (%, negative = inhibition) at 10uM” value was 17.9%.

On to `CCC(C)(C(=O)NC1CCCC1)N(Cc1ccco1)C(=O)c1ccc2c(c1)OCO2` (stereo not drawn), for which the “hERG current change (%, negative = inhibition) at 10uM” value was 1.65%. With `CC(C)(C)C(C(Oc1ccc(Cl)cc1)n1cncn1)n1nnnc1C(c1cccc(Cl)c1)N1CCCCC1` (stereo not drawn), the “hERG current change (%, negative = inhibition) at 10uM” value is reported as -5.11%.
